# Experimental data as given in PubChem BioAssay AID485294 (National Center for Advancing Translational Sciences (NCATS), 2010).
# The campaign covered roughly 370,000 compounds. About 150 (0.041%) were called active. Inconclusive results, whose numbers are uncertain, are shown with a selection of clear calls. The call rests on the fitted dose curve; in most records, active means well fitted inhibition curve with a large enough effect; inconclusive means small, poorly fitted or top-dose-only effect; inactive means flat fitted curve, though single readings scatter. No potency is given beside an inconclusive call; the fits are too rough.
# Target: Beta-lactamase (Escherichia coli (strain K12)) (UniProt P00811)
# Chain of UniProt P00811 (P00811 whole entry, looked up): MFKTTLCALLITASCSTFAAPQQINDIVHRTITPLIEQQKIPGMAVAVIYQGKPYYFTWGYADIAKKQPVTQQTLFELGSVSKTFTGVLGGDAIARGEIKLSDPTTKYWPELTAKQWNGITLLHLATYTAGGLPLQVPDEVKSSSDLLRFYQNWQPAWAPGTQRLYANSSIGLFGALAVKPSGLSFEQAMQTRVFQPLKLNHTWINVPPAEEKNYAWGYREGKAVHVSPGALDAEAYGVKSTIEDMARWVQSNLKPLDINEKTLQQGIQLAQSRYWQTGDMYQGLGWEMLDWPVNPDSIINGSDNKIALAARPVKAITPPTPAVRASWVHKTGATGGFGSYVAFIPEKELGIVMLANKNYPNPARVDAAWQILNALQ
# Assay: qHTS Inhibitors of AmpC Beta-Lactamase (assay with detergent); further: nearly all actives have a fitted effect of over 25% in size;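 on activity change, negative = inhibition: 0% = no-compound wells and -100% = no-enzyme wells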
# Settings: AmpC hydrolysis of nitrocefin, absorbance 480 nm, 0.01% Triton; activity change, negative = inhibition: at 114 µM (top of the series)
# Outline: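 AmpC (5.3 nM in the dispensed reagent) in 20 mM phosphate pH 7.0 with 0.01% (detergent screen) or 0.0001% Triton X-100 was preincubated with compounds for 15 min at room temperature. Nitrocefin was then added from an 800 uM solution, and hydrolysis was followed at 480 nm.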
# Potency means the concentration at half of the fitted maximal effect; tags describe the fitted curve by direction and shape.
SMILES,Potency,"activity change, negative = inhibition"
Cc1ccn2c(=O)nc(SCC(=O)c3ccccc3)nc2c1,"inconclusive [inhibitor, full curve]",–
CCC(C)NC(=O)Cc1ccc(-c2ccccc2)cc1 (configuration not stated),–,inactive: 3.38%
O=C(/C=C/Nc1ccccc1)C(F)(F)F,"inconclusive [inhibitor, full curve, poor fit]",–
CC(=O)c1ccc(S(=O)(=O)N(C)CC(=O)Nc2cc(C)on2)cc1,"inconclusive [inhibitor, full curve, poor fit]",–
CC(C)CN1CCN(Cc2cccc3cccnc23)CC1CCO (configuration not stated),–,inactive: 4.12%
COc1ccc(Nc2nc(NCc3ccco3)nc(N3CCOCC3)n2)cc1,"inconclusive [inhibitor, full curve, poor fit]",–
CCc1nnc(SCC(=O)Nc2cccc(C(F)(F)F)c2)c2cc3oc(C)cc3n12,–,inactive: -6.33%
CCOc1cc(CNCCSc2nnnn2C)cc(Br)c1OCc1ccccc1F,"inconclusive [inhibitor, partial curve, poor fit]",–
CCC(=O)Nc1ccc(NC(=O)CSc2nnnn2-c2ccc(OC)cc2)cc1,–,inactive: -10.2%
Cc1cc2ncn(/N=C/c3cccnc3)c2cc1C,–,inactive: -5.26%
CC1=C(C(=O)O)N2C(=O)[C@@H](NC(=O)[C@H](N)c3ccccc3)[C@H]2SC1,–,inactive: -6.01%
CCOc1ccc2c(c1)[N+](C)(C)C(C)(C)C=C2C,–,inactive: -0.516%
C=CCn1c(Cc2c[nH]c3ccccc23)nnc1SCC(=O)NCc1ccccc1,"inconclusive [inhibitor, full curve]",–
C/C(=N/NC(=O)CNC(=O)C(c1ccccc1)c1ccccc1)c1ccco1,–,inactive: 4.16%
CCN(CC(=O)Nc1cccc(C(C)=O)c1)S(=O)(=O)c1ccccc1,–,inactive: -3.83%
CCN1C(=O)[C@H]2[C@@H](c3ccc(-c4ccccc4)cc3)N[C@@](CC(C)C)(C(=O)OC)[C@H]2C1=O,"inconclusive [inhibitor, full curve, poor fit]",–
CCOc1ccc(S(=O)(=O)N2CCN(C(=O)C3CSC4(C)CCC(=O)N34)CC2)cc1 (configuration not stated),"inconclusive [inhibitor, full curve, poor fit]",–
O=C(c1ccc2c(=O)n(Cc3ccccc3)c(=S)[nH]c2c1)N1CCCC1,"inconclusive [inhibitor, full curve, poor fit]",–
C=C1C(O)C[C@H]2C(=C)CCC3[C@H](OC(=O)[C@]3(O)CO)[C@@H]12 (some centres not stated),"inconclusive [inhibitor, partial curve, poor fit]",–
COc1cccc(Oc2cn[nH]c2-c2ccc(OC)cc2O)c1,–,inactive: -9.87%
NNc1nc2ccc(Cl)cc2s1,–,inactive: 4.19%
CC(NC(=O)Nc1ccccc1F)C(C)(C)C (configuration not stated),"inconclusive [inhibitor, single point]",–
Cc1nnc(NC(=O)CSc2cn(CCNC(=O)c3ccccc3)c3ccccc23)s1,"inconclusive [inhibitor, full curve]",–
O=C(COc1ccc2c(c1)OCO2)Nc1cccc(F)c1,"inconclusive [inhibitor, partial curve, poor fit]",–

SMILES,Potency,"activity change, negative = inhibition"
NS(=O)(=O)c1ccc(NC(=O)COC(=O)CSCc2ccc(F)cc2)cc1,"inconclusive [inhibitor, full curve, poor fit]",–
Cc1nnc(SCc2ccccn2)n(N)c1=O,"inconclusive [inhibitor, full curve, poor fit]",–
CCOc1ccc(N/C=C/C(=O)c2ccc(OC)cc2)cc1,"inconclusive [inhibitor, full curve, poor fit]",–
O=C(NCCc1ccccc1)c1cnc2sc(N3CCCCC3)nn2c1=O,–,inactive: 4.65%
Cc1ccc(-n2nnnc2CNC(=O)C2CC(=O)N(c3ccc(F)cc3)C2)cc1C (configuration not stated),"inconclusive [inhibitor, full curve]",–
CCOc1ccc2oc(C(=O)OCC(=O)NC3CCCC3)c(C)c2c1,"inconclusive [inhibitor, full curve, poor fit]",–
CC(=O)c1c(OC(=O)c2ccccc2)ccnc1C(F)(F)F,"inconclusive [inhibitor, full curve]",–
Cc1cc(C)c2nc(N3CCOCC3)c(C#N)cc2c1,"inconclusive [inhibitor, full curve, poor fit]",–
COc1ccc(NC(=O)c2cncn2-c2ccccc2)cc1,"inconclusive [inhibitor, full curve, poor fit]",–
O=C(Nc1ccc(F)cc1)Nc1nnc(-c2ccccc2)o1,–,inactive: -2.9%
Oc1ccc(CNc2ccccc2)c2cccnc12,"inconclusive [inhibitor, full curve]",–
CCC/C=N/NC(=O)c1cccc(Br)c1,"inconclusive [inhibitor, full curve]",–
O=C(NNC(=S)Nc1ccc(F)cc1)C1CC1c1ccc(Cl)cc1 (configuration not stated),–,inactive: 1.59%
COc1ccc(N(C(=O)c2ccco2)C(C(=O)NC2CCCC2)c2ccc(C)cc2)c(OC)c1 (configuration not stated),"inconclusive [inhibitor, partial curve]",–
COc1cccc(-c2nnc3n2N=C(C(C)(C)C)CS3)c1,–,inactive: 3.27%
O=C(NNc1ccccn1)C(c1ccccc1)c1ccccc1,"inconclusive [inhibitor, full curve, poor fit]",–
O=C(Nc1nnc(-c2ccccc2)o1)C1CCCCC1,"inconclusive [inhibitor, full curve]",–
O=C(N1CCOCC1)N1CCN(Cc2ccccc2)CC1,–,inactive: -11.6%
Cc1nn(CC(=O)OCC(=O)Nc2c(C(C)C)cccc2C(C)C)c(C)c1[N+](=O)[O-],"inconclusive [inhibitor, full curve, poor fit]",–
Cc1ccc(C(=O)NC(=S)N2CCN(C)CC2)cc1Br,–,inactive: 2.87%
COc1ccc(C(=O)Nc2ccc(OC)c(OC)c2)cc1,–,inactive: -14.7%
CCOc1ccc2nc(N3C(=O)/C(=C/c4ccccc4)NC3=S)sc2c1,–,inactive: -17.1%
CCOc1ccc(CCNC(=O)COC(=O)Cn2cnc3ccccc3c2=O)cc1OCC,"inconclusive [inhibitor, full curve, poor fit]",–
